# Reference: the supplement of paper PMC8728848
# The other results are listed elsewhere or left out.
# B1: PX9937A-bvu-521-23-521 (Bacteroides vulgatus) (protein)
# chain: LDLAPEDYYGAGNFWKEASQPKAFMLGLHAQLRSYYDMFYTLGELRGGTQRVGTSSLNTSLNYADIRSQNISEDIPGISNWNGLYSPIMQVNHFIQEVENGCTFLDDATRSRYLGQAYGMRALYYFMLYRTFGGVPLITKVDILDGKPSADKFYVERATPEATMEFIKADINKSENYFGNNTSFDAYDWSRYATLMLKAEIYMWAAKVSITGFTATGATDLQTAKTALSGIIGHFELMDNFASIFSCDNKKNTEIIFAMPFIEGEASNDGGRFLYQDAVFLGQAYGRNGKVIEKDTLNLKGTGGVFRDEYTEDFWKTFKEGDSRRDATFMEYYMKNDNGTLSEFGCVMKKRIGTINSNDNRIYISDIPVYRYADALLMMAEIENGLNNPCASYINEVRKRAYGDTFEENKYTEGSYAENELAILQERDKEFVSEGKRWFDVLRMHDASGRSLVFSANANYPGTNPILGTEEAYKMLWPVNIGTLNVNPLLTQTPGYGKK
# Legend:
# Experiment in all cases: glycan array binding signal (z-score within array); higher = stronger binding
# Conditions in all cases: glycan notation: IUPAC condensed, linker removed
# [1] = target: Gal(a1-3)[Gal(a1-4)]Gal(b1-4)GlcNAc
# Summary of the method: (§1)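 The Consortium for Functional Glycomics database supplied 3228 glycan arrays, of which those lacking an available protein sequence were dropped. The binding signal, a within-array Z-score, was averaged across arrays of the same protein sequence and across linkers. Negative scores can be read as non-binding.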
# [2] = target: Gal(a1-4)Gal(b1-3)GlcNAc(b1-2)Man(a1-3)[Gal(a1-4)Gal(b1-3)GlcNAc(b1-2)Man(a1-6)]Man(b1-4)GlcNAc(b1-4)GlcNAc
# Summary of the method: as §1
# [3] = target: Gal(a1-4)Gal(b1-4)Glc
# Summary of the method: as §1
# [4] = target: Gal(a1-4)Gal(b1-4)GlcNAc
# Summary of the method: as §1
# [5] = target: Gal(a1-4)Gal(b1-4)GlcNAc(b1-2)Man(a1-3)[Gal(a1-4)Gal(b1-4)GlcNAc(b1-2)Man(a1-6)]Man(b1-4)GlcNAc(b1-4)GlcNAc
# Summary of the method: as §1
# [6] = target: Gal(a1-4)Gal(b1-4)GlcNAc(b1-3)Gal(b1-4)Glc
# Summary of the method: as §1
# [7] = target: Gal(a1-4)GlcNAc
# Summary of the method: as §1
# [8] = target: Gal(a1-6)Glc
# Summary of the method: as §1
# [9] = target: Gal(b1-2)Gal
# Summary of the method: as §1
# [10] = target: Gal(b1-3)Gal
# Summary of the method: as §1
# [11] = target: Gal(b1-3)Gal(b1-4)GlcNAc
# Summary of the method: as §1
# [12] = target: Gal(b1-3)GalNAc
# Summary of the method: as §1
# [13] = target: Gal(b1-3)GalNAc(a1-3)[Fuc(a1-2)]Gal(b1-4)Glc
# Summary of the method: as §1
# [14] = target: Gal(b1-3)GalNAc(a1-3)[Fuc(a1-2)]Gal(b1-4)GlcNAc
# Summary of the method: as §1
# [15] = target: Gal(b1-3)GalNAc(b1-3)Gal
# Summary of the method: as §1
# [16] = target: Gal(b1-3)GalNAc(b1-3)Gal(a1-4)Gal(b1-4)Glc
# Summary of the method: as §1
# [17] = target: Gal(b1-3)GalNAc(b1-4)Gal(b1-4)Glc
# Summary of the method: as §1
# [18] = target: Gal(b1-3)GalNAc(b1-4)[Neu5Ac(a2-3)]Gal(b1-4)Glc
# Summary of the method: as §1
# [19] = target: Gal(b1-3)GlcNAc
# Summary of the method: as §1
# [20] = target: Gal(b1-3)GlcNAc(a1-3)Gal(b1-4)GlcNAc
# Summary of the method: as §1
# [21] = target: Gal(b1-3)GlcNAc(a1-6)Gal(b1-4)GlcNAc
# Summary of the method: as §1
# [22] = target: Gal(b1-3)GlcNAc(b1-2)Man
# Summary of the method: as §1
# [23] = target: Gal(b1-3)GlcNAc(b1-2)Man(a1-3)[Gal(b1-3)GlcNAc(b1-2)Man(a1-6)]Man(b1-4)GlcNAc(b1-4)GlcNAc
# Summary of the method: as §1
# [24] = target: Gal(b1-3)GlcNAc(b1-2)Man(a1-3)[Gal(b1-3)GlcNAc(b1-2)Man(a1-6)]Man(b1-4)GlcNAc(b1-4)[Fuc(a1-6)]GlcNAc
# Summary of the method: as §1
# [25] = target: Gal(b1-3)GlcNAc(b1-2)Man(a1-3)[GlcNAc(b1-4)][Gal(b1-3)GlcNAc(b1-2)Man(a1-6)]Man(b1-4)GlcNAc(b1-4)GlcNAc
# Summary of the method: as §1
# [26] = target: Gal(b1-3)GlcNAc(b1-2)[Gal(b1-3)GlcNAc(b1-6)]Man(a1-6)[Gal(b1-3)GlcNAc(b1-2)Man(a1-3)]Man(b1-4)GlcNAc(b1-4)GlcNAc
# Summary of the method: as §1
# [27] = target: Gal(b1-3)GlcNAc(b1-3)Gal(b1-3)GlcNAc
# Summary of the method: as §1
# [28] = target: Gal(b1-3)GlcNAc(b1-3)Gal(b1-4)Glc
# Summary of the method: as §1
# [29] = target: Gal(b1-3)GlcNAc(b1-3)Gal(b1-4)GlcNAc
# Summary of the method: as §1
# [30] = target: Gal(b1-3)GlcNAc(b1-3)Gal(b1-4)GlcNAc(b1-2)Man(a1-3)[Gal(b1-3)GlcNAc(b1-3)Gal(b1-4)GlcNAc(b1-2)Man(a1-6)]Man(b1-4)GlcNAc(b1-4)GlcNAc
# Summary of the method: as §1
# [31] = target: Gal(b1-3)GlcNAc(b1-3)Gal(b1-4)GlcNAc(b1-2)[Gal(b1-3)GlcNAc(b1-3)Gal(b1-4)GlcNAc(b1-6)]Man(a1-6)[Gal(b1-3)GlcNAc(b1-3)Gal(b1-4)GlcNAc(b1-2)Man(a1-3)]Man(b1-4)GlcNAc(b1-4)[Fuc(a1-6)]GlcNAc
# Summary of the method: as §1
# [32] = target: Gal(b1-3)GlcNAc(b1-3)Gal(b1-4)GlcNAc(b1-3)Gal(b1-4)GlcNAc(b1-2)[Gal(b1-3)GlcNAc(b1-3)Gal(b1-4)GlcNAc(b1-3)Gal(b1-4)GlcNAc(b1-6)]Man(a1-6)[Gal(b1-3)GlcNAc(b1-3)Gal(b1-4)GlcNAc(b1-3)Gal(b1-4)GlcNAc(b1-2)Man(a1-3)]Man(b1-4)GlcNAc(b1-4)[Fuc(a1-6)]GlcNAc
# Summary of the method: as §1
# [33] = target: Gal(b1-3)GlcNAc(b1-3)Gal(b1-4)GlcNAc(b1-6)[Gal(b1-3)GlcNAc(b1-3)]Gal(b1-4)Glc
# Summary of the method: as §1
# [34] = target: Gal(b1-3)GlcNAc(b1-3)Gal(b1-4)[Fuc(a1-3)]GlcNAc
# Summary of the method: as §1
# [35] = target: Gal(b1-3)GlcNAc(b1-3)Gal(b1-4)[Fuc(a1-3)]GlcNAc(b1-6)[Gal(b1-3)GlcNAc(b1-3)]Gal(b1-4)Glc
# Summary of the method: as §1
# [36] = target: Gal(b1-3)GlcNAc(b1-3)GalNAc
# Summary of the method: as §1
# [37] = target: Gal(b1-3)GlcNAc(b1-6)Gal(b1-4)GlcNAc
# Summary of the method: as §1
# [38] = target: Gal(b1-3)GlcNAc(b1-6)GalNAc
# Summary of the method: as §1
binder,measurement,setting,value
B1,glycan array binding signal (z-score),[1],2.4
same,glycan array binding signal (z-score),[2],-0.165
same,glycan array binding signal (z-score),[3],0.404
same,glycan array binding signal (z-score),[4],0.696
same,glycan array binding signal (z-score),[5],-0.078
same,glycan array binding signal (z-score),[6],-0.51
same,glycan array binding signal (z-score),[7],-0.194
same,glycan array binding signal (z-score),[8],-0.448
same,glycan array binding signal (z-score),[9],-0.195
same,glycan array binding signal (z-score),[10],-0.259
same,glycan array binding signal (z-score),[11],-0.181
same,glycan array binding signal (z-score),[12],-0.234
same,glycan array binding signal (z-score),[13],0.538
same,glycan array binding signal (z-score),[14],-0.214
same,glycan array binding signal (z-score),[15],0.877
same,glycan array binding signal (z-score),[16],0.189
same,glycan array binding signal (z-score),[17],-0.217
same,glycan array binding signal (z-score),[18],1.47
same,glycan array binding signal (z-score),[19],-0.312
same,glycan array binding signal (z-score),[20],-0.721
same,glycan array binding signal (z-score),[21],-0.624
same,glycan array binding signal (z-score),[22],-0.189
same,glycan array binding signal (z-score),[23],0.127
same,glycan array binding signal (z-score),[24],-0.366
same,glycan array binding signal (z-score),[25],0.011
same,glycan array binding signal (z-score),[26],-0.357
same,glycan array binding signal (z-score),[27],-0.411
same,glycan array binding signal (z-score),[28],0.542
same,glycan array binding signal (z-score),[29],-0.307
same,glycan array binding signal (z-score),[30],-0.279
same,glycan array binding signal (z-score),[31],0.311
same,glycan array binding signal (z-score),[32],-0.1
same,glycan array binding signal (z-score),[33],0.043
same,glycan array binding signal (z-score),[34],-0.451
same,glycan array binding signal (z-score),[35],0.151
same,glycan array binding signal (z-score),[36],0.063
same,glycan array binding signal (z-score),[37],-0.028
same,glycan array binding signal (z-score),[38],-0.407
